Each structure is given as a SMILES string. Hit rate of the full screen: of about 52,000 compounds, about 4,300 (8.3%) were called active. Rule as the data show it: active = survival mostly below about 52% (no sharp cut-off); inactive = mostly above about 56%. The list shows a part of the results.

This assay concerns DeltatarO mutant. Description: S. aureus survival, RN4220 and DeltatarO strains – OD600, teichoic acid synthesis inhibitors, primary screen (AID 463173). As to conditions: S. aureus RN4220 wild type/DeltatarO growth, OD600, 18 h, stronger effect = lower value, screened at 18.75 µg/mL (by protocol).
For `Cc1oc2ncn(CC(C)C)c(=O)c2c1C(=O)NCCCN1CCC(C)CC1`, the survival was inactive: 115%.
To `O=C(COc1ccccc1F)OCc1cc(=O)n2nc(C3CC3)sc2n1` belongs inactive: 84%; to `Cc1cc(C)cc(-n2c(C)nc3cc(C(=O)NCc4ccccc4Cl)ccc32)c1`, inactive: 80%.
Turning to `Cc1ccc(NC(=O)CN2C(=O)CCc3cc(S(=O)(=O)N4CCCCC4)ccc32)cc1C`, the survival is inactive: 112%.
Take `CCOc1ccc(NC(=O)N(Cc2c[nH]c3ccccc23)C2CCCCCC2)cc1`: the survival is inactive: 79%.
For `Cc1ccc(NC(=O)c2c(C)oc3ccc(O)c(CN4CCOCC4)c23)c(C)c1` the value was inactive: 89%; for `COc1ccc(C2C(C(=O)Nc3ccccc3OC)=C(C)Nc3c(C(=O)Nc4ccccc4)cnn32)c(OC)c1` (stereo not given), inactive: 134%; for `CC(C)CCNC(=O)CCn1c(=O)c2cccn2c2cccnc21`, inactive: 79%.
To `Cc1ccc(OCC(=O)N(Cc2ccco2)Cc2ccco2)cc1C` belongs inactive: 51%; to `COc1ccc(CCNC(=O)CNCC2CCCO2)cc1OC` (stereo not given), inactive: 97%.
To `COc1cn(CC(=O)Nc2ccccc2)c(CN2CCCCC2)cc1=O` belongs inactive: 95%; to `Cc1ccc(NC(=O)c2cc3c(=O)n(Cc4ccco4)ccc3nc2C)cc1C`, inactive: 70%.
For the compound `Cc1ccc(CN(C(=O)COc2ccc(Cl)cc2C)C2CCS(=O)(=O)C2)o1` (stereo not given), the survival is inactive: 76%.
To `CCOC(=O)c1c(NC(=O)c2cc(CC(C)C)on2)sc(C(C)=O)c1C` belongs active: 54%; to `CCCn1c(=O)c2c(nc3n2CCN3c2ccc(C)cc2)n(C)c1=O`, inactive: 69%; to `CSc1ccc(C2c3c(oc4cc(C)cc(C)c4c3=O)C(=O)N2CCO)cc1` (stereo not given), inactive: 67%.
For `COC(=O)c1cn(C(C)C(=O)NCc2ccco2)c2ccccc12` (stereo not given), the survival was inactive: 91%.
To `Cc1nc2sc(C(=O)N(C)c3ccccc3)c(NC(=O)c3ccccc3Cl)c2c(C)c1C` belongs inactive: 57%.
`O=C(COC(=O)c1ccccn1)Nc1ccccc1`: the survival is inactive: 101%.
Take `CN(C(=O)Cn1cc(S(=O)(=O)N2CCN(c3ccccc3F)CC2)c2ccccc2c1=O)c1ccc(Cl)cc1`: the survival was inactive: 94%.
To `COCC(C)NC(=O)c1cnn2c(C(F)F)cc(-c3ccccc3)nc12` (stereo not given) belongs inactive: 74%.
Regarding `O=C(NCCCN1CCN(c2ccccc2F)CC1)c1cc2c(Cl)nc3ccccc3c2s1`, the survival was active: 51%.
With `Cc1cc(C)c(NC(=O)CN2c3ccccc3S(=O)(=O)c3ccccc32)c(C)c1`, the survival is inactive: 106%.
For `Cc1nnc(SCc2ccccc2Cl)c2cc3sccc3n12` the value was inactive: 100%.
Regarding `O=C(Nc1sc2c(c1C(=O)Nc1ccc(Cl)cc1)CCCC2)c1cccs1`, the survival was inactive: 159%.

The record behind these values is PubChem BioAssay AID463173 (ICCB-Longwood Screening Facility, Harvard Medical School, 2010).
